Experimental data taken from PubChem BioAssay AID624418 (National Center for Advancing Translational Sciences (NCATS), 2012).
In all, about 410,000 compounds went through this assay and about 530 (0.13%) were called active. The shares of active, inactive and inconclusive entries below differ from those in the screen. The call rests on the fitted dose curve; in most records, active means well fitted inhibition curve with a large enough effect; inconclusive means small, poorly fitted or top-dose-only effect, or another doubt; inactive means no such curve, though single readings can be large or run the other way. Potencies beside an inconclusive call are fits to weak or partial responses and may not hold up.

assay: qHTS of GLP-1 Receptor Inverse Agonists: Cytotox Screen; settings: HEK293 cAMP-luciferase reporter cells, luminescence, 24 h; activity change, negative = inhibition: at 38.3 µM (top of the series) unless noted
Summary of the method: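 Here, cytotoxicity is scored as loss of luminescence. The MLSMR collection was tested on cells seeded in medium containing 10% Nu serum, with a 24 hr compound exposure preceded by 12 hours of culture.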
On the % scale 0 is the no-effect control and ±100 the full control effect; potency means the concentration at half of the fitted maximal effect.

Compound | Potency | activity change, negative = inhibition
CCOC(=O)N1CCN(C(=O)Cn2ncc3c4ccccc4n(Cc4ccc(F)cc4)c3c2=O)CC1 | inactive | –
CSc1ccc(Cn2nnc(C(=O)NCCc3ccc(Cl)cc3)c2N)cc1 | inconclusive: 5.62 µM [inhibitor, full curve, poor fit] | –
O=C(CSc1cccc[n+]1[O-])c1cccs1 | inconclusive: 5.62 µM [inhibitor, full curve, poor fit] | –
CCCCc1ccc(NC(=S)NCCc2ccc(S(N)(=O)=O)cc2)cc1 | inactive | –
Cc1ccc(Cl)cc1NS(=O)(=O)c1ccc(N2CCCCS2(=O)=O)cc1 | inactive | –
O=C(NCC(O)c1ccc([N+](=O)[O-])cc1)C(c1ccccc1)c1ccccc1 (configuration not stated) | inactive | –
O=C(Nc1ccc2c(c1)OCO2)N1CCN(c2cccc(C(F)(F)F)c2)CC1 | inconclusive: 11.2 µM [inhibitor, single point] | –
O=C(NNC(=O)C1CCCC1)c1ccccc1F | inactive | –
COC(=O)CCC(=O)Nc1ccc(Cl)c(Cl)c1 | inactive | –
O=C(CN1C(=O)c2ccccc2C1=O)N1CCN(C2c3ccccc3-c3ccccc32)CC1 | inconclusive: 28.2 µM [inhibitor, single point] | –
COc1cc2c(cc1OC)CN(c1nc(CN3CCOCC3)nc3sc4c(c13)CCC(C)C4)CC2 (configuration not stated) | inconclusive: 20 µM [inhibitor, single point] | –
CC(Oc1ccccc1)C(=O)NNC(=O)c1ccccn1 (configuration not stated) | inconclusive: 12.6 µM [inhibitor, partial curve, poor fit] | –
Cc1nn(-c2ccc(F)cc2)c(Cl)c1C(=O)N(C)CC(=O)Nc1cccc(F)c1 | inconclusive: 12.6 µM [inhibitor, partial curve, poor fit] | –
O=C(Cc1ccc(Br)c2ccccc12)N/N=C/c1ccccn1 | inconclusive: 10 µM [inhibitor, partial curve, poor fit] | –
CCC(=O)CCC(=O)c1ccc2ccccc2c1 | – | inactive: -4.27% [at 1.53 µM]
Cc1c(CN2CCC(CO)(Cc3ccccc3)CC2)c2ccccc2n1C | inconclusive: 25.1 µM [inhibitor, single point] | –
O=C(N/N=C\C=C\c1ccco1)C1COc2ccccc2O1 (configuration not stated) | inconclusive: 31.6 µM [inhibitor, single point] | –
CCC(C)NCC(=O)Nc1ccc(-c2nc3cc(NC(=O)CNC(C)CC)ccc3o2)cc1 (configuration not stated) | inconclusive: 28.2 µM [inhibitor, single point] | –
Nc1[nH]n(-c2ccccc2)c(=O)c1N=Nc1ccc2c(c1)OCCO2 | inconclusive: 22.4 µM [inhibitor, partial curve, poor fit] | –
Cc1ccc(-c2ccc(/C=N/NC(=O)CN3CCCC3)o2)cc1Cl | inconclusive: 11.2 µM [inhibitor, single point] | –
Cc1ccc2[nH]c(=O)c(CN(CCc3ccccc3)Cc3nnnn3CC3CCCO3)cc2c1 (configuration not stated) | inactive | –

Compound | Potency | activity change, negative = inhibition
COc1ccc(-n2c(SCc3cn4c(C)cccc4n3)nc3ccccc3c2=O)cc1OC | inconclusive: 12.6 µM [inhibitor, partial curve, poor fit] | –
CCOC(=O)C1=C(Cc2ccc(F)cc2)C(=O)c2ccccc2C1=O | inconclusive: 28.2 µM [inhibitor, single point] | –
CC(C)C(=O)Nc1sc2c(c1-c1nc3ccccc3[nH]1)CCCC2 | inconclusive: 7.94 µM [inhibitor, partial curve, poor fit] | –
CC1=CC(C)(C)N(C(=O)CNC2CCCCC2)c2cc(C)ccc21 | inconclusive: 28.2 µM [inhibitor, single point] | –
COc1ccc(C(C(=O)NC2CCCC2)n2c(CSCCOc3ccccc3)nc3ccccc32)cc1 (configuration not stated) | inactive | –
O=C(NC1CCCCC1)C(c1ccco1)N(C(=O)c1csnn1)c1ccc(Cl)cc1 (configuration not stated) | inconclusive: 28.2 µM [inhibitor, single point] | –
CCCCc1nn2c(=O)cc(COC(=O)c3ccccc3C)nc2s1 | inactive | –
CCOC(=O)Cc1csc(NC(=O)NC2(C(F)(F)F)Oc3ccc(Cl)cc3O2)n1 (configuration not stated) | inactive | –
CC(Cc1ccccc1)C(=O)N(C)Cc1ccccc1 (configuration not stated) | inconclusive: 28.2 µM [inhibitor, single point] | –
c1ccc2c(c1)C(=NC1CCCCC1)NC2=NC1CCCCC1 | inconclusive: 14.1 µM [inhibitor, single point] | –
CCOC(=O)N1CCN(c2ccc([N+](=O)[O-])cc2)CC1 | inconclusive: 8.91 µM [inhibitor, partial curve, poor fit] | –
CCCCCCC#Cc1cncc(C(=O)NNC(=O)Nc2cc(Cl)cc(Cl)c2)c1 | inconclusive: 22.4 µM [inhibitor, single point] | –
Oc1ccccc1C1SC(c2ccccc2O)SC(c2ccccc2O)S1 (configuration not stated) | inconclusive: 20 µM [inhibitor, single point] | –
CCN(c1ccccc1)S(=O)(=O)c1ccc(C(=O)NNC(=O)c2ccccc2F)cc1 | inconclusive: 31.6 µM [inhibitor, single point] | –
CCOC(=O)C(=Cc1cc(=O)c(OC)co1)C(=O)OCC | inconclusive: 11.2 µM [inhibitor, single point] | –
CCCN1C(=O)/C(=C2/C=Cc3ccccc3N2CC)SC1=S | inconclusive: 1.41 µM [inhibitor, full curve] | –
C=CCN1C(=O)C(CC(=O)Nc2ccc(OCCC)cc2)N(CCCN2CCN(Cc3ccccc3)CC2)C1=S (configuration not stated) | inconclusive: 8.91 µM [inhibitor, partial curve, poor fit] | –
CC(C)Oc1cc(NC(=O)CS(=O)CC(=O)Nc2cccc(C(F)(F)F)c2)c(Cl)cc1Cl (configuration not stated) | inconclusive: 28.2 µM [inhibitor, single point] | –
CCCCc1nc(N2CCOCC2)c(C#N)c2c1COC(C)(C)C2 | inactive | –
O=C(CCCC(=O)NN=Cc1ccccc1Cl)NN=Cc1ccccc1Cl | inconclusive: 31.6 µM [inhibitor, single point] | –
Cc1ccc(/C=N/NC(=O)CNC(=O)c2ccc(S(=O)(=O)N(C)C)cc2)cc1 | inconclusive: 28.2 µM [inhibitor, single point] | –
